Measurements reported in the supplement of paper PMC11417369.
The other results are listed elsewhere or left out.

test system: PfSIP2 AP2 domain 1 (GST-tagged); experiment: gcPBM binding intensity (ln(normalized median fluorescence intensity)); higher = stronger DNA binding
How it was run: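 An Agilent 4 × 180k array of primer-extended double-stranded 36-bp intergenic genomic probes, with negative controls, was incubated for 1 h with GST-tagged P. falciparum DNA-binding domains expressed in E. coli. Alexa488 anti-GST antibody detected bound protein, scanned at 488 nm. Binding intensity is the highest Masliner-normalised natural-log median intensity across replicate spots of either probe orientation.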

| Sequence | gcPBM binding intensity (ln) |
| --- | --- |
| AGAAACATATGGTAGTGTACTGTAAATTTATTCTTT [XGTACX_site8602] | 6.93 |
| TTTTATCAAATATTTATTTTATACATAAATATTTAT [XGTACX_negctrl_site528] | 7.06 |
| ATAACATCAGTATTATGTACATATGTAGGTAAATAA [XGTACX_site7066] | 7.26 |
| TTTTATTGTTTTTTTTTTTTTTCTTTTTTTTTTTTT [CACACA_negctrl_site1094] | 7.24 |
| CGTTATTATACACATACACACAGGAATAAAAAATTA [CACACA_site7373] | 7.29 |
| ATTATTATATTTATATGTACATAGAAAAAATTAAAT [XGTACX_site2058] | 7.42 |
| AAAGTGGCCATATATTTTTTTTTTTTTTTCCTTATT [CACACA_negctrl_site485] | 6.7 |
| AAAAATAAAGGATATACACACTAATTATATATATAT [CACACA_site5550] | 8.77 |
| TCAGATATATATATATAAATATATATTTTGAAATGT [CACACA_negctrl_site686] | 7.13 |
| TAGTATCCAAGAAAAAGTACTTATTTTAATTTTTTA [XGTACX_site6243] | 6.73 |
| AATATTTATAAAGACACACAAACAAAAAGGATAAAA [CACACA_site2985] | 7.41 |
| TCATTTAAGTAGACGCGTACGGAAATTACGAATCCT [XGTACX_site144] | 6.61 |
| TTTTTTTTTTGTTGAGTGCAATTATTTGTAAGAAAA | 8.17 |
| AAATTAATATATAAAAGTACCCATATATTTAATATA [XGTACX_site3551] | 6.93 |
| AGTTTGTTTTTTTTTTTTTTTTCCTGTCACAAACAA [CACACA_negctrl_site1093] | 6.98 |
| TCTCCACCTCTCTTGGTGCGTTATACCCTCGAGGCT | 8.65 |
| TATAACAAAATATTCACACATATAAGTAAATAAAGG [CACACA_site5777] | 7.23 |
| TCAAAGCACCCATACACACACATATATATATATATA [CACACA_site4317] | 9.71 |
| GTCATATATATATGTACACACATATATATATTTATA [CACACA_site1459] | 7.07 |
| GTACGTTACATAAATGTGCACATATTATATGCGAAG | 9.38 |
| AAGACTGCACTTTAAGCACACAAATATATTTTTTTT [CACACA_site8337] | 8.18 |
| AAGAAAAAAATTTAATTAAATGAAATTTTTGAATTA [TGCATGCA_negctrl_site25] | 6.51 |

| Sequence | gcPBM binding intensity (ln) |
| --- | --- |
| TGATAAAATGGGGAAATTCATTATATCATATCTTGG [CACACA_negctrl_site789] | 6.62 |
| TTGGATAAAAAATATGTACACACATATAGATATCTA [CACACA_site8862] | 6.95 |
| ATTATATTAAAATACACACCCAAATATTAAAAAGAT [CACACA_site5613] | 7.47 |
| TTTGAAATATTAAATGCATGTTAAAACATAAAAATG [TGCATGCA_site680] | 7.05 |
| TTTCTTCTTCTATTGTGTACGTAAAAAAAAAAAAAA [XGTACX_site772] | 7.73 |
| GGTAATTTCCTTTTTTGTACTCATAGAAGGATAATA [XGTACX_site89] | 7.18 |
| ACTGTAAAAGGATTTACACACATATTTACATTTACA [CACACA_site519] | 7 |
| TACCAATGCATAACGGTGCAAAAAAATAAGGAATAA | 10.7 |
| ATGCATATAACTACGTGTACAAATATACACAAATAC [XGTACX_site8811] | 7.22 |
| ACCCATAAAAAGGATACACACACACCCACCCATATA [CACACA_site8205] | 6.97 |
| ATATATATATTTGTATGTACATATATATATTCGTAT [XGTACX_site1640] | 8.34 |
| TTTCCTTATTAAAACACACAAATACATTATTTAATC [CACACA_site7080] | 7.06 |
| ACATTTTTTTCATATCGTACATATTATAATATTTTC [XGTACX_site6524] | 7.65 |
| AAAAAAAAAAAAGGAGGTACACAATTTTATATATGC [XGTACX_site5296] | 6.97 |
| ACAAGTCAGGCAAAAACATGCATTATTTGAACATTA [TGCATGCA_site864] | 6.91 |
| GAGCATTACCCATATACACACATATATATAAACCTA [CACACA_site2737] | 7.36 |
| GTACGATAAAAAATTGGACAAAAAAAAAAAAAAAAT [XGTACX_negctrl_site158] | 7.03 |
| ATTTCATAAATTAAACGTACATAATACACACACATG [XGTACX_site4155] | 7.34 |
| TAAAACAACAAAGAAAATGAAAAAGTAAAAACATAT [CACACA_negctrl_site1049] | 6.99 |
| TTTTGTTATTTTTTAGTGCATATAAAGGTTGTTAAG | 8.64 |
| TTTTGCAATAATGTTGCACACTAAATAGTCATCTAT [CACACA_site4304] | 7.34 |
| AAAAACTAATCTTTAACATGCAACCGTTTATACATA [TGCATGCA_site363] | 7.32 |
